Experimental data taken from PubChem BioAssay AID1345083 (National Center for Advancing Translational Sciences (NCATS), 2018).
Out of some 94,000 compounds screened, about 6,200 (6.6%) were called active. Inconclusive results, whose numbers are uncertain, are shown with a selection of clear calls. Calls follow the shape of the dose curve; as a rule, active = well fitted inhibition curve with a large enough effect; inconclusive = small, poorly fitted or top-dose-only effect; inactive = flat fitted curve, though single readings scatter. Where the call is inconclusive, the potency comes from a doubtful curve fit.

assay: Cytotoxic Profiling in HEK 293 Cell Line of Diverse Libraries Using Quantitative High-Throughput Screening; details: HEK 293 viability, ATP luminescence (CellTiter-Glo), 48-72 h; series mostly up to 115 µM; also: nearly all actives have a fitted effect of over 60% in size
Procedure, shortened: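 Pintool-delivered compounds were incubated with HEK 293 cells (250 cells/well) at 37 degree Celsius for 48 or 72 hr. ATP-dependent luminescence (CellTiter-Glo) then reported remaining viable cells.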
Potency is read from the fitted curve at half-maximal effect; tags tell the direction and shape of the fitted curve.

| Structure (SMILES) | Potency |
| --- | --- |
| Cc1ccc(-c2cccc(CN3CCCC(NC(=O)Nc4ccc(Cl)cc4)C3)c2)cc1Cl (stereo not drawn) | inconclusive: 89.1 µM [inhibitor, single point] |
| O=C(O)CNC(=O)CNC(=O)Cn1nc2c(cc1=O)CCCC2 | inactive |
| CCCNC(=O)N1CCC(O)(c2csc(CN3CC[C@@H](O)C3)n2)CC1 | inactive |
| COCCOC(=O)C1=C(C)N=C2SC=C(CC(=O)NCc3ccco3)N2C1c1ccccc1OC (stereo not drawn) | inactive |
| O=C(C1CC=CC1)N1CCC(c2nc(CCOCC3CC3)no2)C1 (stereo not drawn) | inconclusive: 35.5 µM [inhibitor, partial curve, poor fit] |
| COc1ccc(CC(=O)NC2CCN(c3cc(-c4ccc(F)cc4)[nH]n3)C2)cc1 (stereo not drawn) | inconclusive: 31.6 µM [inhibitor, partial curve, poor fit] |
| CSc1cccc(NC(=O)Cn2c(N3CCCCC3)nc(C)c(C)c2=O)c1 | inconclusive: 89.1 µM [inhibitor, partial curve, poor fit] |
| CNC(=O)c1cc(C2CC2)nc2onc(C3CCN(C(=O)Nc4ccc(Cl)cc4)CC3)c12 | inconclusive: 79.4 µM [inhibitor, partial curve, poor fit] |
| COCC(=O)N1CCn2c(nn(-c3ccc([N+](=O)[O-])cc3)c2=O)C1 | inactive |
| CN1Cc2cccn2CC1CNC(=O)c1ccccc1F (stereo not drawn) | inconclusive: 89.1 µM [inhibitor, single point] |
| O=C(c1ccc(Oc2ccccc2)cc1)N1CCOCC12CCN(Cc1ccccc1)CC2 | inconclusive: 50.1 µM [inhibitor, partial curve, poor fit] |
| CC(=O)N1CCCC(C(=O)N2CCC3(CC2)CC(=O)Nc2ccccc2O3)C1 (stereo not drawn) | inactive |
| COc1ccc(-c2cnc(Nc3cc(F)cc(N4CCOCC4)c3)c3c2CCO3)cn1 | inconclusive: 44.7 µM [inhibitor, partial curve, poor fit] |
| COc1ccc(CC(=O)NC2CCN(C(=O)c3ccc(-c4cccs4)cc3)CC2)cc1 | inactive |
| O=C(NCC1CCCO1)N1CCc2nc(-c3ccccc3)[nH]c2C1 (stereo not drawn) | inactive |
| O=C1N(Cc2ccc(F)cc2)C[C@H]2CN(Cc3ccncc3F)CCN12 | inconclusive: 79.4 µM [inhibitor, partial curve, poor fit] |
| COc1ccccc1Nc1ccnc(N2CCCC(C(=O)N(C)C)C2)n1 (stereo not drawn) | inconclusive: 50.1 µM [inhibitor, partial curve, poor fit] |
| O=C1CN(C(=O)c2csc3nc(-c4ccc(C(F)(F)F)cc4)cn23)CCCN1 | active: 44.7 µM |
| COc1cccc(OCC(=O)c2ccc3c(c2)N(CCCC(=O)N2CCOCC2)C(=O)CO3)c1 | inconclusive: 89.1 µM [inhibitor, single point] |
| CC(=O)NC1CCN(c2nc(-c3cccnc3)nc3c2cnn3C)C1 (stereo not drawn) | inconclusive: 22.4 µM [inhibitor, full curve, poor fit] |
| O=C1COc2ccc(N3CCOCC3)nc2CN1Cc1ccccc1F | inconclusive: 126 µM [inhibitor, partial curve, poor fit] |
| COc1ccc(CCC(=O)N2CCCCCCNC(=O)[C@@H]3CCC[C@@H]32)cc1 | inactive |
| COc1ccc(OC)c(-c2noc(Nc3cccc(F)c3)n2)c1 | inconclusive: 39.8 µM [inhibitor, full curve, poor fit] |

| Structure (SMILES) | Potency |
| --- | --- |
| COc1ccc(C(=O)N2CCOCC3(CN(Cc4ccccc4)C3)C2)cc1 | active: 10 µM |
| O=C(Cn1nc2c(cc1=O)CCCC2)Nc1nc2ccccc2s1 | inconclusive: 89.1 µM [inhibitor, single point] |
| O=C(c1ccccc1Cl)N1CCC2(CC1)C(=O)NCN2Cc1ccc(Cl)cc1 | inactive |
| CC(C)S(=O)(=O)N1CCC2(CC1)CC(N(C)Cc1ccccc1)CCO2 (stereo not drawn) | inconclusive: 89.1 µM [inhibitor, single point] |
| Cn1nc(-c2nncn2-c2ccccc2)c2c1CCN(C(=O)C1CCOCC1)C2 | inactive |
| O=C(Nc1cccnc1)c1ccnc(-c2nnc3ccc(N4CCOCC4)nn23)c1 | inactive |
| Cc1ccc(-c2ccc3nnc(CNC(=O)COc4ccccc4)n3n2)cc1C | inconclusive: 89.1 µM [inhibitor, single point] |
| COc1ccc(-c2onc(C)c2C(=O)N(C)Cc2cc(OC)c(OC)c(OC)c2)cc1 | inconclusive: 50.1 µM [inhibitor, partial curve, poor fit] |
| O=C(C1CC1)N1CCC(c2noc(-c3cccnc3)n2)C1 (stereo not drawn) | inactive |
| Cc1cccc(NC(=O)Cn2cccc2-c2nc(-c3ccc(F)cc3)no2)c1 | inactive |
| O=C1C2CN(Cc3ccc4[nH]ccc4c3)CCC2OCCN1Cc1ccccc1F (stereo not drawn) | inconclusive: 100 µM [inhibitor, partial curve] |
| FC(F)(F)CN1C2CCC1CN(c1ccc(-c3ccccc3)nn1)C2 | inconclusive: 50.1 µM [inhibitor, partial curve, poor fit] |
| CC(C)CN1C(=O)c2ccccc2C(C(=O)NCc2ccccn2)C12CCCC2 (stereo not drawn) | inconclusive: 39.8 µM [inhibitor, partial curve, poor fit] |
| COc1ccc(CN2C(=O)COC[C@H]2C(=O)Nc2cc(F)cc(F)c2)cc1OC | inactive |
| Cc1ccc(NC(=O)CC2CCCN(c3cnn(C)c(=O)c3)C2)cc1F (stereo not drawn) | inconclusive: 17.8 µM [inhibitor, full curve, poor fit] |
| CNC(=O)CCn1ncc2cc(OC3CCc4cccc(-c5cccc(F)c5)c43)ccc21 (stereo not drawn) | inconclusive: 89.1 µM [inhibitor, partial curve, poor fit] |
| O=C(NC1Cc2ccccc2C1)c1ccc2nnc(C3CCOCC3)n2c1 | inactive |
| CC(=O)N1CCN(c2cc(-c3noc([C@@H]4CCCN4Cc4ccccc4C)n3)ccn2)CC1 | inconclusive: 44.7 µM [inhibitor, partial curve, poor fit] |
| CC(C)CNC(=O)C(NC(=O)c1ccccc1)C1CCN(C(=O)c2ccccc2)CC1 (stereo not drawn) | inactive |
| Cc1cccc(NC(=O)CN2C(=O)NC(c3ccc(Cl)cc3)C3=C2COC3=O)c1C (stereo not drawn) | inconclusive: 44.7 µM [inhibitor, partial curve, poor fit] |
| COc1ccc(-c2cnc3[nH]cc(CC(=O)Nc4ccc(OC)nc4)c3c2)cc1 | inconclusive: 100 µM [inhibitor, partial curve] |
| Cc1ccccc1C(=O)NC1CCN(CCn2nc3n(c2=O)CCCC3)C1 (stereo not drawn) | inactive |
| O=C(C1CCN([S+](=O)([O-])c2ccccc2)CC1)N1CCC(N2CCCC2=O)CC1 | inactive |

| Structure (SMILES) | Potency |
| --- | --- |
| Cc1cccc(C(=O)N2C(C(=O)NCc3ccccc3)COC23CCC(C)CC3)c1 (stereo not drawn) | inconclusive: 56.2 µM [inhibitor, partial curve, poor fit] |
| CCC1=C(C(=O)OC)C(c2cccc(OC)c2)N2C(CC(=O)NC3CC3)=CSC2=N1 (stereo not drawn) | inactive |
| Cc1cc(CN(C)c2ccc(-c3nc(-c4ccccc4F)no3)cn2)on1 | inactive |
| O=C(Cc1cccs1)NC1CCCN(c2cc(-c3ccccc3)[nH]n2)C1 (stereo not drawn) | inconclusive: 44.7 µM [inhibitor, partial curve] |
| O=C(CN1CCOCC1)N1CCC(N2C(=O)C3(CCCC3)C2c2ccccc2)CC1 (stereo not drawn) | inactive |
| O=C(Nc1ccccc1)[C@@H]1C[C@@H](c2ccc(F)cc2)N([S+](=O)([O-])c2ccccc2)C1 | inconclusive: 31.6 µM [inhibitor, full curve] |
| COc1ccc(F)cc1-c1cccc(C(=O)NCC(=O)NCCc2ccc(F)cc2)c1 | inconclusive: 79.4 µM [inhibitor, partial curve, poor fit] |
| COCCNCc1ccc(-c2ccc(F)cc2)o1 | inactive |
| O=C1CCN(CC(O)COc2ccccc2)c2ccsc2CN1Cc1ccccc1 (stereo not drawn) | inconclusive: 50.1 µM [inhibitor, partial curve, poor fit] |
| Cc1nc2c(c(-c3ccc(Cl)cc3)n1)CCN(C(=O)C(C)(C)C)CC2 | inactive |
| CC(C)c1ccc([S+](=O)([O-])N2CCN(c3cccc(CN(C)[S+](C)(=O)[O-])c3F)CC2)cc1 | inconclusive: 15.8 µM [inhibitor, full curve, poor fit] |
| CCCn1cc(CNC(=O)c2cc3c(s2)CCC(C)C3)cn1 (stereo not drawn) | inconclusive: 10 µM [inhibitor, full curve, poor fit] |
| Cc1ccc(C2=NC3(CCN(C(=O)c4ccc5[nH]ccc5c4)CC3)ON2)cc1 | inconclusive: 50.1 µM [inhibitor, partial curve, poor fit] |
| O=C(NCc1nnc2c(-c3nc(C4CC4)no3)cccn12)c1ccc(F)cc1 | inconclusive: 100 µM [inhibitor, single point] |
| O=C(COc1ccccc1)N1CCCC1c1nc(CCOCC2CCOCC2)no1 (stereo not drawn) | inactive |
| Cc1ccc(N2CCC(N[C@@H]3CC[C@@H](N)C3)CC2)cc1Cl | active: 7.94 µM |
| COc1ccc(OC2CCN(C(C)=O)CC2)c(C(=O)N2C[C@@H]3CCC[C@H]2C3)c1 | inactive |
| CCCC(=O)Nc1cc(C2CC2)nn1-c1ccccc1 | inactive |
| C[C@@H](NS(C)(=O)=O)c1onc(-c2cccnc2)c1C(=O)O | inactive |
| CCC(=O)N1CCN(c2nc3c(s2)CC(C(=O)NCc2ccccc2)CC3)CC1 (stereo not drawn) | inconclusive: 50.1 µM [inhibitor, partial curve, poor fit] |
| Cc1cccc(-c2nc(CN3CCC(c4nc(-c5cccn5C)no4)C3)no2)c1 (stereo not drawn) | inconclusive: 50.1 µM [inhibitor, partial curve, poor fit] |
| COc1ccc(-c2cc(N3CCC(NC(=O)COc4cccc(C)c4)CC3)n[nH]2)cc1 | inconclusive: 50.1 µM [inhibitor, partial curve, poor fit] |
